# Measured values: publication PMC6042370
# The chains behind the UniProt entries cited, without tags or fusion partners. Where a name states a change or a piece, a line headed by the entry shows the natural chain unless it says otherwise.
# UniProt O43791: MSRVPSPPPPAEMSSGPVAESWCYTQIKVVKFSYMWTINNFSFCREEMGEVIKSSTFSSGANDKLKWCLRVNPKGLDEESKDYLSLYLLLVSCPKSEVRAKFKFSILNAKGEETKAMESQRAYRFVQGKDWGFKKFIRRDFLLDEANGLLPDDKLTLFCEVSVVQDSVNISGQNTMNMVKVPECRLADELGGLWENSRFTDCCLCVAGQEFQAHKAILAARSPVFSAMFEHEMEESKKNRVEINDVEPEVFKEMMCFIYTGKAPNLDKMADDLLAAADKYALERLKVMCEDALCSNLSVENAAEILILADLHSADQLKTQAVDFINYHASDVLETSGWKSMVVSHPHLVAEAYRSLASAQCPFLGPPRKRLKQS
# Results are given in words; binding and its absence hold for the method and conditions named. In cells and extracts the contact can be indirect. Some results given as binding are weak or reduced against the parent protein; the word gives no strength. For some assays here: Tags and fused reporters may be left off the sequences shown.
# T1: FLAG-ATF2 (ATF2-WT) (human (cDNA from a 293T library)) (UniProt P15336)
# T1 sequence: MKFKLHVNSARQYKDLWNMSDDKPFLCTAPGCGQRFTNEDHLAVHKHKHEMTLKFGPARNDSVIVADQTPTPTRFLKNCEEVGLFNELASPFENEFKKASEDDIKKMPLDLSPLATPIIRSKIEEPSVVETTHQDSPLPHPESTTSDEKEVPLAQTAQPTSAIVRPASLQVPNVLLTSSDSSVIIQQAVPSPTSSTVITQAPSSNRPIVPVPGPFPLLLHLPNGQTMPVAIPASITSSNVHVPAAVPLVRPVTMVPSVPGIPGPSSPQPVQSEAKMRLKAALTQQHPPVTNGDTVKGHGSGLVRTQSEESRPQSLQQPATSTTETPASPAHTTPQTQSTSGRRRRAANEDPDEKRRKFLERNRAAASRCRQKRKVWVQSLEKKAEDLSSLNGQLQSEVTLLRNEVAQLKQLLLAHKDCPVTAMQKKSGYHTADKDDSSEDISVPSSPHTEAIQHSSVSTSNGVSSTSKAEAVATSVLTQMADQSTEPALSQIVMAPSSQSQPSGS
# T2: endogenous ATF2 (C4-2 cells) (human (endogenous in C4-2)) (UniProt P15336)
# T2 sequence: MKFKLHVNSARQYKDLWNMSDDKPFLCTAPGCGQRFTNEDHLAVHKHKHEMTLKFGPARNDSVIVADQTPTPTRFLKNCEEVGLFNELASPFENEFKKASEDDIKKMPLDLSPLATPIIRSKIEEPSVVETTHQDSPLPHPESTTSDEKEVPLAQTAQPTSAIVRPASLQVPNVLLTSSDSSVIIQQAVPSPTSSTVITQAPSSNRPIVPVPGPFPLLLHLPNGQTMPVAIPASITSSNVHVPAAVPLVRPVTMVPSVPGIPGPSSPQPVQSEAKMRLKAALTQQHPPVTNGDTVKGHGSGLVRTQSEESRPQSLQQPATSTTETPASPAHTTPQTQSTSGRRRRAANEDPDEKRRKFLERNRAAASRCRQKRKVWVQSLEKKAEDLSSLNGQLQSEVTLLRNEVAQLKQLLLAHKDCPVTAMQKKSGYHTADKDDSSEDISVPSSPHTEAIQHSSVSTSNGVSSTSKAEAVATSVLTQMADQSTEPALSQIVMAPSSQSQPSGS
# Target: T1, FLAG-ATF2 (ATF2-WT) (human (cDNA from a 293T library))
# Test: co-IP; 293T cells co-transfected, lysed 24 h later in BC100 buffer; anti-FLAG M2 agarose overnight, elution with FLAG peptide, Western blot
row,Molecule,binding
1,"Myc-SPOP (SPOP-WT, full-length) (from UniProt O43791 1-374)",binds
2,Myc-SPOP-F102C (from UniProt O43791 1-374),no binding
3,Myc-SPOP-F125V (from UniProt O43791 1-374),no binding
4,Myc-SPOP-F133V (from UniProt O43791 1-374),no binding
5,Myc-SPOP-W131C (from UniProt O43791 1-374),no binding
6,Myc-SPOP-W131G (from UniProt O43791 1-374),no binding
7,Myc-SPOP-Y87N (from UniProt O43791 1-374),binds

# Other lines, results leading:
row,binding,Molecule
1,no binding,Myc-SPOP-F133L (from UniProt O43791 1-374)
2,no binding,Myc-SPOP-K129E (from UniProt O43791 1-374)
3,binds,Myc-SPOP-K134N (from UniProt O43791 1-374)
4,binds,Myc-SPOP-S119N (from UniProt O43791 1-374)
5,binds,Myc-SPOP-Y87C (from UniProt O43791 1-374)

# Target: FLAG-SPOP (293T) (UniProt O43791)
# Test: as above
row,binding,Molecule
1,binds,"Myc-ATF2 (protein, UniProt P15336 1-505) MKFKLHVNSARQYKDLWNMSDDKPFLCTAPGCGQRFTNEDHLAVHKHKHEMTLKFGPARNDSVIVADQTPTPTRFLKNCEEVGLFNELASPFENEFKKASEDDIKKMPLDLSPLATPIIRSKIEEPSVVETTHQDSPLPHPESTTSDEKEVPLAQTAQPTSAIVRPASLQVPNVLLTSSDSSVIIQQAVPSPTSSTVITQAPSSNRPIVPVPGPFPLLLHLPNGQTMPVAIPASITSSNVHVPAAVPLVRPVTMVPSVPGIPGPSSPQPVQSEAKMRLKAALTQQHPPVTNGDTVKGHGSGLVRTQSEESRPQSLQQPATSTTETPASPAHTTPQTQSTSGRRRRAANEDPDEKRRKFLERNRAAASRCRQKRKVWVQSLEKKAEDLSSLNGQLQSEVTLLRNEVAQLKQLLLAHKDCPVTAMQKKSGYHTADKDDSSEDISVPSSPHTEAIQHSSVSTSNGVSSTSKAEAVATSVLTQMADQSTEPALSQIVMAPSSQSQPSGS"

# Target: T1, FLAG-ATF2 (ATF2-WT) (human (cDNA from a 293T library))
# Test: co-IP; 293T cells transfected with wild-type SPOP and ATF2, with SPOP mutants (F125V, W131G or F133L) co-expressed; anti-FLAG IP, Western blot
row,binding,Molecule
1,binds,"Myc-SPOP (SPOP-WT, full-length) (from UniProt O43791 1-374)"

# Target: T2, endogenous ATF2 (C4-2 cells) (human (endogenous in C4-2))
# Test: co-IP; endogenous proteins in C4-2 lysate, 20 uM MG132 for 8 h; IgG or anti-ATF2 antibody overnight at 4 C, protein A/G beads, Western blot
row,binding,Molecule
1,binds,endogenous SPOP (C4-2 cells) (from UniProt O43791 1-374)

# Target: FLAG-SPOP (C4-2, lentiviral) (UniProt O43791)
# Test: co-IP; C4-2 cells infected with lentivirus expressing FLAG-SPOP or control, 20 uM MG132 for 8 h; anti-FLAG IP, Western blot of endogenous proteins
row,binding,Molecule
1,binds,"endogenous DEK (C4-2 cells) (protein, UniProt P35659 1-375) MSASAPAAEGEGTPTQPASEKEPEMPGPREESEEEEDEDDEEEEEEEKEKSLIVEGKREKKKVERLTMQVSSLQREPFTIAQGKGQKLCEIERIHFFLSKKKTDELRNLHKLLYNRPGTVSSLKKNVGQFSGFPFEKGSVQYKKKEEMLKKFRNAMLKSICEVLDLERSGVNSELVKRILNFLMHPKPSGKPLPKSKKTCSKGSKKERNSSGMARKAKRTKCPEILSDESSSDEDEKKNKEESSDDEDKESEEEPPKKTAKREKPKQKATSKSKKSVKSANVKKADSSTTKKNQNSSKKESESEDSSDDEPLIKKLKKPPTDEELKETIKKLLASANLEEVTMKQICKKVYENYPTYDLTERKDFIKTTVKELIS"
2,binds,"endogenous ATF2 (C4-2 cells) (protein, UniProt P15336 1-505) MKFKLHVNSARQYKDLWNMSDDKPFLCTAPGCGQRFTNEDHLAVHKHKHEMTLKFGPARNDSVIVADQTPTPTRFLKNCEEVGLFNELASPFENEFKKASEDDIKKMPLDLSPLATPIIRSKIEEPSVVETTHQDSPLPHPESTTSDEKEVPLAQTAQPTSAIVRPASLQVPNVLLTSSDSSVIIQQAVPSPTSSTVITQAPSSNRPIVPVPGPFPLLLHLPNGQTMPVAIPASITSSNVHVPAAVPLVRPVTMVPSVPGIPGPSSPQPVQSEAKMRLKAALTQQHPPVTNGDTVKGHGSGLVRTQSEESRPQSLQQPATSTTETPASPAHTTPQTQSTSGRRRRAANEDPDEKRRKFLERNRAAASRCRQKRKVWVQSLEKKAEDLSSLNGQLQSEVTLLRNEVAQLKQLLLAHKDCPVTAMQKKSGYHTADKDDSSEDISVPSSPHTEAIQHSSVSTSNGVSSTSKAEAVATSVLTQMADQSTEPALSQIVMAPSSQSQPSGS"
